Measured values reported in patent US5760092A, “Allocolchinones and uses thereof” (Brandeis University, priority 1996, dated 1998).

What was measured:
[1] = test system: SW-620 colon cancer cells
[2] = test system: UO-31 renal cancer cells
[3] = test system: MALME-3M melanoma cells
[4] = test system: 786-0 renal cancer cells; assay: cells; conditions: Homo sapiens
[5] = test system: HCT-116 colon cancer cells; assay: cells; conditions: Homo sapiens
[6] = test system: MDA-N breast cancer cells
[7] = test system: HL-60 (TB) leukemia cells
[8] = test system: T-47D breast cancer cells; assay: cells; conditions: Homo sapiens, T47D
[9] = test system: IGR-OV1 ovarian cancer cells
[10] = test system: MDA-MB-231/ATCC breast cancer cells; assay: cells; conditions: Homo sapiens
[11] = test system: KM12 colon cancer cells; assay: cells; conditions: Homo sapiens
[12] = test system: UACC-62 melanoma cells
[13] = test system: CCRF-CEM leukemia cells; assay: cells; conditions: Homo sapiens
[14] = test system: SK-MEL-28 melanoma cells; assay: cells; conditions: Homo sapiens
[15] = test system: LOX IMVI melanoma cells; assay: cells; conditions: Homo sapiens
[16] = test system: OVCAR-5 ovarian cancer cells
[17] = test system: UACC-257 melanoma cells; assay: cells; conditions: Homo sapiens
[18] = test system: RPMI-8226 leukemia cells; assay: cells; conditions: Homo sapiens
[19] = test system: SR leukemia cells
[20] = test system: MCF7 breast cancer cells
[21] = test system: SN12C renal cancer cells
[22] = test system: M14 melanoma cells; assay: cells; conditions: Homo sapiens
[23] = test system: HCC-2998 colon cancer cells; conditions: human, hcc-2998 colon cancer cells
[24] = test system: A549/ATCC non-small cell lung cancer cells; assay: cells; conditions: Homo sapiens
[25] = test system: NCI-H522 non-small cell lung cancer cells
[26] = test system: UACC-257 melanoma cells
[27] = test system: HCT-15 colon cancer cells; assay: cells; conditions: Homo sapiens, HCT-15
[28] = test system: HL-60 (TB) leukemia cells; assay: cells; conditions: Homo sapiens
[29] = test system: NCI-H460 non-small cell lung cancer cells; assay: cells; conditions: Homo sapiens
[30] = test system: T-47D breast cancer cells
[31] = test system: MDA-MB-435 breast cancer cells
[32] = test system: NCI-H23 non-small cell lung cancer cells; assay: cells; conditions: Homo sapiens
[33] = test system: HT29 colon cancer cells; assay: cells; conditions: Homo sapiens
[34] = test system: UACC-62 melanoma cells; assay: cells; conditions: Homo sapiens
[35] = test system: SR leukemia cells; assay: cells
[36] = test system: NCI-H460 non-small cell lung cancer cells

CCCC(=O)NC1CCc2cc(OC)c(OC)c(OC)c2-c2ccc(C(C)=O)cc21 (stereo not drawn)
TGI [1]: > 100 µM | GI50 [2]: < 10 nM | TGI [2]: 69.1 µM and > 100 µM | TGI [3]: 52.5 µM and > 100 µM | GI50 ([4]; 786-0): < 10 nM | CC50 ([4]; 786-0, read-out: LC50): > 100 µM | GI50 ([5]; HCT-116): < 10 nM | CC50 ([5]; HCT-116, read-out: LC50): > 100 µM | TGI [6]: < 10 nM | TGI [7]: < 10 nM | GI50 [8]: > 100 µM | TGI [9]: > 100 µM and 77.2 µM | GI50 ([10]; MDA-MB-231): < 10 nM | CC50 ([10]; MDA-MB-231, read-out: LC50): > 100 µM | GI50 ([11]; KM12): < 10 nM | CC50 ([11]; KM12, read-out: LC50): > 100 µM | TGI [12]: > 100 µM | GI50 [13]: < 10 nM | CC50 ([13]; read-out: LC50): > 100 µM | GI50 ([14]; SK-MEL-28): < 10 nM | CC50 ([14]; SK-MEL-28, read-out: LC50): > 100 µM | GI50 [15]: < 10 nM | CC50 ([15]; read-out: LC50): > 100 µM | TGI [16]: > 100 µM | GI50 ([17]; UACC-257): < 10 nM | CC50 ([17]; UACC-257, read-out: LC50): > 100 µM | GI50 ([18]; RPMI-8226): < 10 nM | CC50 ([18]; RPMI-8226, read-out: LC50): > 100 µM | TGI [19]: < 10 nM | TGI [20]: < 10 nM | TGI [21]: > 100 µM | GI50 ([22]; M14): < 10 nM | CC50 ([22]; M14, read-out: LC50): > 100 µM | CC50 [23]: 97 µM | GI50 ([24]; A549): 13.8 nM | CC50 ([24]; A549, read-out: LC50): > 100 µM | TGI [25]: < 10 nM | TGI [26]: > 100 µM | GI50 [27]: < 10 nM | GI50 ([28]; HL-60): < 10 nM | CC50 ([28]; HL-60, read-out: LC50): > 100 µM | GI50 ([29]; NCI-H460): < 10 nM | CC50 ([29]; NCI-H460, read-out: LC50): > 100 µM | TGI [30]: > 100 µM | TGI [31]: < 10 nM | GI50 ([32]; NCI-H23): < 10 nM | CC50 ([32]; NCI-H23, read-out: LC50): > 100 µM | GI50 ([33]; HT-29): < 10 nM | CC50 ([33]; HT-29, read-out: LC50): > 100 µM | GI50 ([34]; UACC-62): < 10 nM | CC50 ([34]; UACC-62, read-out: LC50): > 100 µM | GI50 [35]: < 10 nM | CC50 ([35]; Homo sapiens, read-out: LC50): > 100 µM | TGI [36]: > 100 µM

“And” between values parts separate entries of the source, which are not always exact repeats. Equal entries are not always repeated.
